The structures appear in SMILES notation. Some of the results follow.

In the assay the test system is HepG2. In words: cytotoxicity call (relative viability < 0.9). Particulars: 10 µM.
On to `Cc1ccc(S(=O)(=O)N(C)C[C@@H]2Oc3ccc(NS(C)(=O)=O)cc3CC(=O)N([C@H](C)CO)C[C@H]2C)cc1`, for which the cytotoxicity call is “inactive”.

For `C[C@H]1CC=CC[C@H](c2cccc(Cl)c2)NC(=O)[C@@H](Cc2ccccc2)N(C)C(=O)c2ccccc2O1`, the cytotoxicity call was “inactive”.

In the case of `O=C(C[C@@H]1CC[C@@H]2[C@H](COC[C@H](O)CN2C(=O)Nc2ccc(F)cc2)O1)NCCCN1CCOCC1`, the cytotoxicity call was “inactive”.

`COc1ccc(NC(=O)N(C)C[C@@H]2Oc3ncc(C#CC(C)C)cc3C(=O)N([C@H](C)CO)C[C@H]2C)cc1`: the cytotoxicity call was “inactive”.

`C[C@H]1CN([C@@H](C)CO)C(=O)CCCn2cc(nn2)CO[C@H]1CN(C)S(=O)(=O)c1ccc(Oc2ccccc2)nc1`: the cytotoxicity call was “inactive”.

Regarding `C[C@@H]1CN([C@H](C)CO)C(=O)c2cc(C#CC3CCCC3)cnc2O[C@@H]1CN(C)S(=O)(=O)c1cccc(F)c1`, the cytotoxicity call is “inactive”.

With `C[C@H](CO)N1C[C@H](C)[C@@H](CN(C)C(=O)Nc2ccccc2)Oc2cc(Br)ccc2S1(=O)=O`, the cytotoxicity call is “inactive”.

Regarding `O=C(NCc1ccccc1)[C@@]1(CCS(=O)(=O)c2ccccc2)COC(c2ccc(OCCCO)cc2)=N1`, the cytotoxicity call is “inactive”.

Take `COc1cc(/C=C/C(=O)c2c(NCCc3ccccc3)sc(-c3ccc(O)c(OC)c3)cc2=O)ccc1O`: the cytotoxicity call was “inactive”.

In the case of `C=CC(=O)N1C[C@@H]2CC[C@H](O)[C@@H]2C1`, the cytotoxicity call is “inactive”.

With `COc1ccc2c3c([nH]c2c1)[C@@H](CO)N(C[C@]13CCN(CCc2ccccc2)CC1)C(=O)CN1CCOCC1`, the cytotoxicity call is “inactive”.

Turning to `C[C@H]1[C@H]([Si](C)(C)F)[C@@H](CC(=O)N(CCO)Cc2ccccc2)O[C@]12C(=O)N(c1ccccc1)c1ccccc12`, the cytotoxicity call was “inactive”.

`COc1ccc2c3c([nH]c2c1)[C@H](CO)N(C[C@]13CCN(CC1)Cc1ccccc1OC)C(=O)Nc1ccc(cc1)F`: the cytotoxicity call is “inactive”.

Turning to `C[C@H](CO)N1C[C@H](C)[C@H](CN(C)C(=O)C2CCCCC2)OCCCC[C@H](C)Oc2ccc(NC(=O)Nc3ccccc3)cc2C1=O`, the cytotoxicity call is “inactive”.

Regarding `C[C@@H]1CCCCO[C@H](CN(C)Cc2ccccc2)[C@@H](C)CN([C@@H](C)CO)C(=O)c2cc(NC(=O)C3CCCCC3)ccc2O1`, the cytotoxicity call is “inactive”.

Regarding `C[C@@H]1CN([C@@H](C)CO)S(=O)(=O)c2ccc(/C=C/c3ccccc3)cc2O[C@@H]1CN(C)C(=O)CN1CCOCC1`, the cytotoxicity call was “inactive”.

As to `COc1cc(C2c3cc4c(cc3C(OC3OC5COC(C)OC5C(O)C3O)C3COC(=O)C23)OCO4)cc(OC)c1O` (stereo not drawn), the cytotoxicity call is “inactive”.

Turning to `Cc1ccc(S(=O)(=O)N(C)C[C@@H]2OCCCC[C@@H](C)Oc3ccc(NS(C)(=O)=O)cc3C(=O)N([C@H](C)CO)C[C@@H]2C)cc1`, the cytotoxicity call is “inactive”.

`C[C@H]1CCCCO[C@@H](CN(C)Cc2ccccc2)[C@@H](C)CN([C@@H](C)CO)C(=O)c2cc(NC(=O)NC3CCCCC3)ccc2O1`: the cytotoxicity call is “inactive”.

Take `COc1ccc(NC(=O)N(C)C[C@H]2OCCCC[C@H](C)Oc3ccc(NS(=O)(=O)c4ccc(F)cc4)cc3C(=O)N([C@@H](C)CO)C[C@H]2C)cc1`: the cytotoxicity call is “inactive”.

For the compound `C[C@H]1CN([C@@H](C)CO)C(=O)c2cc(NC(=O)Nc3cccc4ccccc34)ccc2O[C@H]1CN(C)Cc1ccc(C(=O)O)cc1`, the cytotoxicity call is “inactive”.

On to `Cc1cc(C(=O)Nc2cccc3c2O[C@H](CN(C)Cc2ccccc2)[C@H](C)CN([C@H](C)CO)C3=O)n(C)n1`, for which the cytotoxicity call was “inactive”.

As for `COc1ccc(NC(=O)N(C)C[C@H]2Oc3ccc(NC(=O)CCCCCC(=O)Nc4ccccc4N)cc3CC(=O)N([C@H](C)CO)C[C@@H]2C)cc1`, the cytotoxicity call is “inactive”.

As for `COc1ccc(CCNC(=O)[C@@]2(Cc3ccccc3I)c3ccccc3C(=O)N(Cc3ccccc3)[C@H]2c2ccc(COC(=O)NCCCCCC(=O)NO)cc2)cc1`, the cytotoxicity call is “inactive”.

As to `C[C@@H]1CCCCO[C@@H](CN(C)Cc2ccc(C(F)(F)F)cc2)[C@@H](C)CN([C@@H](C)CO)C(=O)c2cc(NS(=O)(=O)c3cccs3)ccc2O1`, the cytotoxicity call is “active”.

In the case of `C=CCNC(=O)[C@H]1[C@@H]2C(=O)O[C@@H](c3ccccc3)[C@@H](c3ccccc3)N2[C@@H](c2ccccc2OCCO)[C@]12C(=O)Nc1ccc(C#CC3=CCCCC3)cc12`, the cytotoxicity call is “inactive”.

On to `COc1ccc(NC(=O)Nc2ccc3c(c2)C(=O)N([C@@H](C)CO)C[C@H](C)[C@@H](CN(C)S(=O)(=O)c2ccc(Cl)cc2)OCCCC[C@@H](C)O3)cc1`, for which the cytotoxicity call is “inactive”.

Consider `CO[C@@H]1CN(C)C(=O)c2cc(NC(=O)C3CCOCC3)ccc2OC[C@@H](C)N(C(=O)C2CCOCC2)C[C@H]1C`, for which the cytotoxicity call is “inactive”.

Values taken from the antibiotic and cytotoxicity screens of Wong et al. (2023).
